Laboratory results as given in PubChem BioAssay AID485364 (National Center for Advancing Translational Sciences (NCATS), 2010).
The whole screen tested about 360,000 compounds, of which about 11,000 (3.1%) were called active. Inconclusive means that the source gave no clear call. Such entries were picked first, then a sample of the others. The call rests on the fitted dose curve; in most records, active means well fitted inhibition curve with a large enough effect; inconclusive means small, poorly fitted or top-dose-only effect; inactive means no such curve, though single readings can be large or run the other way. No potency is given beside an inconclusive call; the fits are too rough.

Molecular target: Schistosoma mansoni thioredoxin glutathione reductase (TGR) (UniProt Q962Y6)
Test: qHTS Assay for the Inhibitors of Schistosoma Mansoni Peroxiredoxins; further: nearly all actives have a fitted effect of over 60% in size
Conditions: purified TGR, DTNB reduction, TNB absorbance 405 nm; activity change, negative = inhibition: at 114 µM (top of the series) unless noted
Method in brief: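 Kinetic colorimetric format: TGR-catalysed, NADPH-driven DTNB reduction monitored via TNB absorbance. Enzyme dispensed at 20 nM; compound exposure 15 min at room temperature before reaction start.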
On the % scale 0 is the no-effect control and ±100 the full control effect; potency means the concentration at half of the fitted maximal effect; tags describe the fitted curve by direction and shape.

Row | Compound | Potency | activity change, negative = inhibition
1 | COc1ccc(-n2c(C)cc(C(=O)CCl)c2C)cc1 | active: 3.98 µM | –
2 | Cn1nc(-c2ccc(N3CCOCC3)c(NS(=O)(=O)c3ccccc3)c2)c2ccccc2c1=O | inconclusive [inhibitor, partial curve] | –
3 | O=C(CSc1nnc(-c2ccncc2)n1-c1ccc(Cl)cc1)NCc1cccs1 | – | inactive: -0.306%
4 | C[C@H](NC(=O)c1nc[nH]c1C(=O)N[C@H](C)c1ccccc1)C(=O)OC(C)(C)C | – | inactive: 7.32%
5 | Cc1ccc(C2C=C(c3ccc(Cl)cc3)Nc3nc(NS(=O)(=O)c4ccccc4)nn32)cc1 (centres undefined) | active: 31.6 µM | –
6 | CCC(=O)N1CCN(c2ccc(NC(=O)c3ccc([N+](=O)[O-])o3)cc2Cl)CC1 | inconclusive [inhibitor, full curve] | –
7 | NC(=O)Nn1c(CCC(=O)O)ccc1-c1ccc(Cl)cc1 | – | inactive: -32.2%
8 | CC(OC(=O)COc1ccccc1)C(=O)NC1CCCC1 (centres undefined) | active: 22.4 µM | –
9 | CCc1ccccc1N1C(=O)C2CC(C)=C(C)CC2C1=O (centres undefined) | inconclusive [inhibitor, single point] | –
10 | Cc1ccc(/C=C(\C#N)C(=O)Nc2cccc(C)n2)cc1 | – | inactive: 8.51%
11 | O=C(CCc1nc(CN2CCN(S(=O)(=O)c3ccc(F)cc3)CC2)no1)N1CCCCC1 | inconclusive [inhibitor, partial curve] | –
12 | N#C/C(=C\c1c(N(Cc2ccccc2)Cc2ccccc2)nc2ccccn2c1=O)C(N)=O | – | inactive: -12.2%
13 | Cc1cccc(NCc2cc(Cl)ccc2O)n1 | – | inactive: -22.5%
14 | CCOCCCNC(=O)NC(C)c1c(-n2cccc2)sc2c1CCN(CC)C2 (centres undefined) | inconclusive [inhibitor, partial curve] | –
15 | C=CCn1c(CNC(=O)c2ccco2)nnc1SCC(=O)c1ccccc1 | inconclusive [inhibitor, partial curve] | –
16 | CCOC(=O)c1ccccc1NC(=O)Cn1c(=O)n(Cc2nc(-c3ccccc3)no2)c(=O)c2ccccc21 | – | inactive: -2.67%
17 | COc1ccc(-c2cc(C(=O)N3CCN(c4ncccn4)CC3)c3ccccc3n2)cc1 | – | inactive: 13%
18 | COc1ccc(CC2C(=O)N(C)C(=O)N(C)C2=O)c(OC)c1 | inconclusive [inhibitor, partial curve] | –
19 | Cc1ccc(N(CC(O)COCc2ccco2)S(=O)(=O)c2ccc(C)cc2)cc1 (centres undefined) | active: 8.91 µM | –
20 | CC(c1ccccc1)n1c(N2CCNCC2)nc2c1c(=O)[nH]c(=O)n2C (centres undefined) | inconclusive [inhibitor, partial curve, poor fit] | –
21 | Cc1cccc(N(CC(=O)O)CC(=O)O)c1 | inconclusive [inhibitor, partial curve, poor fit] | –
22 | Cc1sc2c(=O)n3c(nc2c1C(=O)NCCCN1CCOCC1)CCCCC3 | inconclusive [inhibitor, partial curve] | –
23 | COc1ccccc1NS(=O)(=O)c1cccc(NC(=O)c2sc3ccccc3c2Cl)c1 | – | inactive: -1.58%
24 | CCCOc1ccc(N2C(=O)CC(N(CCc3ccc(S(N)(=O)=O)cc3)C(C)=O)C2=O)cc1 (centres undefined) | inconclusive [inhibitor, partial curve] | –
25 | O=C(NC(=S)NCCCN1CCOCC1)c1ccc(Br)cc1 | inconclusive [inhibitor, partial curve] | –

Row | Compound | Potency | activity change, negative = inhibition
26 | C/C(CC(c1ccccc1)c1c(O)c2ccccc2oc1=O)=N\Nc1ccc([N+](=O)[O-])cc1[N+](=O)[O-] (centres undefined) | inconclusive [inhibitor, partial curve] | –
27 | O=C(Nc1ccc(-c2cn3ccsc3n2)cc1)C1COc2ccccc2O1 (centres undefined) | – | inactive: 7.38%
28 | COC(=O)N/N=C/c1ccc(OC(=O)/C=C/c2ccco2)cc1 | inconclusive [inhibitor, partial curve] | –
29 | CCOc1ccc(-c2cc(OC(=O)c3ccc(F)cc3)c3c(C)oc(C)c3c(=O)c2)cc1 | inconclusive [inhibitor, partial curve] | –
30 | O=C(CC1Sc2ccc(C(F)(F)F)cc2NC1=O)Nc1ccc(Cl)c(C(F)(F)F)c1 (centres undefined) | – | inactive: 5.34%
31 | O=C(c1ccc(-c2cccc(C(F)(F)F)c2)o1)N1CCN(c2ccccc2)CC1 | inconclusive [inhibitor, partial curve] | –
32 | O=C(CSc1ccc(-c2ccco2)nn1)Nc1ccccc1 | active: 7.08 µM | –
33 | CCOC(=O)c1cnc2c(Cl)cccc2c1NCCN1CCOCC1 | inactive | –
34 | CCCc1nn2c(=O)cc(COc3cccc(NC(=O)c4ccco4)c3)nc2s1 | inconclusive [inhibitor, partial curve] | –
35 | COc1cc(/C=N/n2cnnc2)ccc1OCCOc1ccccc1 | inconclusive [inhibitor, full curve, poor fit] | –
36 | CCOC(=O)c1c(Nc2ccc(C)cc2)nnc(-c2ccccc2)c1-c1ccccc1 | – | inactive: 7.88%
37 | COc1ccc(CN2CCC(N3CC(C)OC(C)C3)CC2)c(OC)c1OC (centres undefined) | – | inactive: -7.73%
38 | CCOC(=O)c1[nH]cnc1N=Nc1c(O)ccc2ccccc12 | – | inactive: -12%
39 | O=C(c1cc(-c2cccc(Cl)c2)on1)N1CCCC1 | – | inactive: -23.7%
40 | COc1ccc(-c2nc(CS(=O)CC(=O)NC3CCCC3)c(C)o2)cc1OC (centres undefined) | active: 20 µM | –
41 | O=C(N=C1SC2CS(=O)(=O)CC2N1c1cc(Cl)ccc1Cl)C1CCCO1 (centres undefined) | – | inactive: 0.699%
42 | O=C1C=C2C=C[C@@H]3CC2(O1)[C@H]1CCCCN31 | inconclusive [inhibitor, partial curve] | –
43 | COc1ccccc1/C=C/C=N/N1CCN(Cc2ccccc2)CC1 | inconclusive [inhibitor, single point] | –
44 | COc1ccccc1OCCC(=O)NCc1ccc2c(c1)OCO2 | – | inactive: -5.54%
45 | COc1cccc2cc(C(=O)CS(=O)(=O)c3ccc(C(C)(C)C)cc3)c(=O)oc12 | inconclusive [inhibitor, partial curve] | –
46 | Cc1c(Cl)cccc1NC(=S)NCc1ccco1 | inconclusive [inhibitor, partial curve] | –
47 | COc1ccc(NC(=O)N2CCCCC2)cc1 | – | inactive: 0%
48 | CCCS(=O)(=O)n1nc(-c2ccc(Br)cc2)cc1N | – | inactive: -8.3%
49 | Cc1[nH]c2ccccc2c1C(=O)C(=O)N1c2ccccc2CC1C (centres undefined) | inconclusive [inhibitor, partial curve, poor fit] | –
